{"source": "PubChem BioAssay AID686971", "about": "(National Center for Advancing Translational Sciences (NCATS), 2013)", "note": "The whole screen tested about 360,000 compounds, of which about 7,500 (2.1%) were called active. This list was built around the results that the source calls inconclusive (neither active nor inactive); the mix of calls is not that of the screen. Calls follow the shape of the dose curve; as a rule, active = well fitted cell-killing curve with a large enough effect; inconclusive = small, poorly fitted or top-dose-only effect, or effect the other way, or another doubt; inactive = no such curve, though single readings can be large or run the other way. Potencies of inconclusive entries are left out as doubtful fits. Potency is read from the fitted curve at half-maximal effect; tags tell the direction and shape of the fitted curve."}
{"test": "qHTS for induction of synthetic lethality in tumor cells producing 2HG: qHTS for the HT-1080-IDH1KD cell line;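 as to activity, negative = toxicity: 0% = DMSO wells and -100% = cell-free medium wells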", "conditions": "HT-1080 IDH1 knockdown viability, ATP luminescence, 48 h; activity, negative = toxicity: at 46.1 µM (top of the series) unless noted", "outline": "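Cytotoxicity counter-line: IDH1KD HT-1080, 48 h, CellTiter-Glo. Curves classed by r2, magnitude and activity.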"}
{"smiles": "COc1ccc(-c2nn(C)c(=O)c3ccccc23)cc1NC(=O)COc1ccccc1", "Potency": "inconclusive [cytotoxic, single point]"}
{"smiles": "Nc1[nH]n2c(=O)cc(-c3ccccc3)nc2c1N=Nc1ccccc1", "Potency": "inconclusive [cytotoxic, full curve]"}
{"smiles": "COc1cc(C(=O)N/N=C/c2ccc3c(c2)c2ccccc2n3C)ccc1O", "Potency": "inconclusive [cytotoxic, single point]"}
{"smiles": "CCCN(CC(=O)Nc1ccccc1C)C(=O)c1cnc(C)cn1", "Potency": "inactive"}
{"smiles": "COc1ccc(/C=N/N2CCN(Cc3ccc(C)cc3)CC2)cc1Br", "Potency": "inactive"}
{"smiles": "Cc1ccc(-n2cc(CNCCCn3ccnc3C)c(-c3ccc(F)cc3)n2)cc1", "Potency": "inconclusive [cytotoxic, single point]"}
{"smiles": "COC(=O)c1ccccc1NC(=S)N(Cc1ccc2c(c1)OCO2)Cc1cc2cc(OC)ccc2[nH]c1=O", "Potency": "inactive"}
{"smiles": "Cc1sc(NC(=O)c2ccco2)c(C(c2cccnc2)N2CCN(c3ccc(F)cc3)CC2)c1C", "note": "(stereo not drawn)", "Potency": "inconclusive [cytotoxic, single point]"}
{"smiles": "Cc1noc(C)c1CCC(=O)Nc1cc(C(=O)O)ccc1Cl", "Potency": "inactive"}
{"smiles": "Cc1c(C(=O)OCC(=O)Nc2cccc(S(N)(=O)=O)c2)oc2c1ccc1ccccc12", "Potency": "inconclusive [cytotoxic, single point]"}
{"smiles": "O=C(NNC1=Nc2ccccc2SC1)c1ccc(F)cc1", "activity, negative = toxicity": "inconclusive: -17.5% [cytotoxic]"}
{"smiles": "C[C@H](CO)N1C[C@H](C)[C@@H](CN(C)Cc2ccncc2)Oc2c(NS(=O)(=O)c3cn(C)cn3)cccc2C1=O", "Potency": "inactive"}
{"smiles": "O=C(N/N=C/c1ccc[nH]1)c1ccc(Cl)cc1", "Potency": "inactive"}
{"smiles": "COc1cc(/C=C2\\C(=O)ON=C2c2ccccc2)cc(Cl)c1O", "Potency": "inconclusive [cytotoxic, single point]"}
{"smiles": "O=[N+]([O-])c1ccc(S(=O)(=O)CC(CN2CCCCC2)N2CCCCC2)cc1", "note": "(stereo not drawn)", "Potency": "inactive"}
{"smiles": "CC1(C)CC(N2CCCC2)=CC(=[N+]2CCCCCC2)C1", "Potency": "active: 11.6 µM"}
{"smiles": "C=CCn1c(SCc2c(C)noc2C)nc2sc3c(c2c1=O)CCCC3", "Potency": "inconclusive [cytotoxic, partial curve]"}
{"smiles": "CCn1c(C)nc2cc(S(=O)(=O)C(F)(F)F)ccc21", "Potency": "inactive"}
{"smiles": "CCCc1ccc(C(=O)[C@@H]2[C@@H](C(C)=O)N3c4ccc(F)cc4C=C[C@@H]3[C@@]23C(=O)Nc2ccccc23)cc1", "Potency": "inconclusive [cytotoxic, single point]"}
{"smiles": "COC(=O)c1[nH]c2c(c1C)C(=O)CCC2", "Potency": "inactive"}
{"smiles": "Cc1cccc(Nc2nnc(SCC(=O)NC(=O)Nc3ccc4c(c3)OCCO4)s2)c1", "Potency": "inconclusive [cytotoxic, single point]"}
{"smiles": "CCOC(=O)Cc1c(C)nc2c(-c3ccc(Cl)cc3)c(C)[nH]n2c1=O", "Potency": "active: 10 µM"}
{"smiles": "C(=C\\c1ccco1)/c1ccc2ccccc2n1", "Potency": "active: 10.3 µM"}
{"smiles": "Cc1ccc(S(=O)(=O)N2CCOCC2)cc1C(=O)OCc1nnc(-c2ccccc2)o1", "Potency": "inactive"}
{"smiles": "C=CC(COCc1ccccc1)N(Cc1ccc(OC)cc1)S(=O)(=O)c1ccccc1Br", "note": "(stereo not drawn)", "Potency": "inactive"}
{"smiles": "COc1ccc(/C=N/NC(=O)c2cccnc2)cc1CSc1nc2ccccc2s1", "Potency": "inconclusive [cytotoxic, partial curve]"}
{"smiles": "CCOC(=O)CNC(=O)C(CC(C)C)NC(=O)C1CCCCC1", "note": "(stereo not drawn)", "Potency": "inactive"}
{"smiles": "CCOC(=O)[C@]12CCCC=C1N(Cc1ccccc1)C(=O)[C@H](CC(=O)NCCCCc1ccccc1)C2", "Potency": "inconclusive [cytotoxic, single point]"}
{"smiles": "CCc1cccc(NC(=O)c2ccc3c(=O)n4c(nc3c2)CCCCC4)c1", "activity, negative = toxicity": "inconclusive: -32.9% [cytotoxic]"}
{"smiles": "Cc1cc(C)c[n+](C(C)C(=O)c2ccc(-c3ccccc3)cc2)c1", "note": "(stereo not drawn)", "Potency": "inconclusive [cytotoxic, single point]"}
{"smiles": "COc1ccc(/C=N\\NC(=O)c2ccccc2Br)cc1COc1ccc(F)cc1", "Potency": "inactive"}
{"smiles": "Cc1cccnc1NC(=S)NC(=O)c1cncc(Br)c1", "Potency": "active: 10 µM"}
{"smiles": "CCN(C(=O)COC(=O)c1cc(-c2cccs2)nc2ccccc12)C1CCS(=O)(=O)C1", "note": "(stereo not drawn)", "Potency": "inconclusive [cytotoxic, partial curve]"}
{"smiles": "O=CNc1cc(-c2ccc(C(=O)NC3CC3)cc2)cn2c(-c3ccccc3)cnc12", "Potency": "active: 5.8 µM"}
{"smiles": "O=C(N/N=C/c1ccc[nH]1)c1cc(-c2ccc(Cl)cc2)nc2ccccc12", "Potency": "inconclusive [cytotoxic, partial curve]"}
{"smiles": "COc1ccc(CNc2oc(Cc3cccc4ccccc34)nc2C#N)cc1", "Potency": "inconclusive [cytotoxic, single point]"}
{"smiles": "C=C[C@]1(C)C[C@@H](OC(=O)CSCCN(CC)CC)[C@]2(C)C(C)CC[C@]3(CCC(=O)[C@H]32)[C@@H](C)[C@@H]1O", "note": "(stereo partly drawn)", "Potency": "inactive"}
{"smiles": "O=C(Nc1ccc(N2CCCC2)cc1)c1cc([N+](=O)[O-])ccc1N1CCOCC1", "Potency": "inconclusive [cytotoxic, single point]"}
{"smiles": "CCn1c(=S)[nH]c2sc3c(c2c1=O)CCCC3", "Potency": "inconclusive [cytotoxic, single point]"}
{"smiles": "O=S(=O)(CCSc1ccccn1)c1nc2ccccc2s1", "Potency": "active: 7.94 µM"}
{"smiles": "O=C(COc1ccccc1F)Nc1nc(-c2ccccn2)cs1", "Potency": "inconclusive [cytotoxic, partial curve]"}
{"smiles": "O=C(NC(c1ccc(F)cc1)c1ccc2ccccc2n1)C1CCN(Cc2ccc3ccccc3n2)CC1", "note": "(stereo not drawn)", "Potency": "active: 23.1 µM"}
{"smiles": "CC1Oc2ccccc2N(Cc2cccc(F)c2)C1=O", "note": "(stereo not drawn)", "Potency": "inactive"}
{"smiles": "CCOc1ccc(/C=N/NC(=O)c2[nH]ncc2Br)c(O)c1", "Potency": "active: 5.17 µM"}
{"smiles": "Cc1ccsc1CN(C)CC(=O)Nc1cccc(S(=O)(=O)N(C)c2ccccc2)c1", "Potency": "inactive"}
{"smiles": "Cc1cc(C)cc(CSCC(=O)N/N=C/c2ccc(OCC(=O)NCc3ccco3)cc2)c1", "Potency": "inconclusive [cytotoxic, single point]"}
{"smiles": "CCc1ccc2c(COC(=O)c3n[nH]c4ccccc34)cc(=O)oc2c1", "Potency": "inconclusive [cytotoxic, single point]"}
{"smiles": "CSc1ccccc1NC(=O)C1(C)CCN1C(=O)Cc1ccc(-c2ccccc2)cc1", "note": "(stereo not drawn)", "Potency": "inconclusive [cytotoxic, single point]"}
{"smiles": "O=C(NCCCn1ccnc1)C(=O)NCC1OCCCN1S(=O)(=O)c1ccc(Cl)cc1", "note": "(stereo not drawn)", "Potency": "inactive"}
{"smiles": "CCC1CCc2sc(C(=O)NCC(c3ccc(OC)cc3)N3CCCC3)cc2C1", "note": "(stereo not drawn)", "Potency": "inconclusive [cytotoxic, single point]"}
{"smiles": "O=C(N/N=C/c1sc2ccccc2c1O)c1cccc2ccccc12", "Potency": "inconclusive [cytotoxic, full curve]"}
{"smiles": "Cc1ccc(OCCCCNC(C)c2ccccc2)c(C)c1", "note": "(stereo not drawn)", "Potency": "inconclusive [cytotoxic, single point]"}
{"smiles": "Cc1ccc(-c2nc(C#N)c(NCCCn3ccnc3)o2)cc1", "activity, negative = toxicity": "inconclusive: -31.9% [cytotoxic]"}
{"smiles": "O=C(CC(=O)Nc1nc(C23CC4CC(CC(C4)C2)C3)cs1)NCCO", "Potency": "inconclusive [cytotoxic, partial curve]"}
{"smiles": "O=[N+]([O-])c1ccc(COc2ccc(-c3[nH]ncc3-c3ccc(Cl)cc3)c(O)c2)cc1", "Potency": "active: 23.1 µM"}
{"smiles": "COc1cc(C(=O)NC(=S)Nc2ccc3[nH]c(=O)[nH]c3c2)cc(OC)c1OC", "Potency": "inconclusive [cytotoxic, single point]"}
{"smiles": "COc1ccc(CC(=O)NNC(=O)c2ccccn2)cc1", "Potency": "inconclusive [cytotoxic, single point]"}
{"smiles": "Cc1ccc(Nc2nc(=O)c3cccnc3s2)c(Br)c1", "Potency": "inconclusive [cytotoxic, partial curve]"}
{"smiles": "CCC(c1nnnn1-c1ccc2c(c1)OCCO2)N1CCN(C(C)=O)CC1", "note": "(stereo not drawn)", "Potency": "inactive"}
{"smiles": "Cc1cccc(C)c1NC(=O)CSc1nc2[nH]c(=O)cc(O)c2s1", "Potency": "inactive"}
{"smiles": "Cc1ccc(C)c(NC(=S)c2ccccn2)c1", "Potency": "inactive"}
{"smiles": "CCOC(=O)[C@]12CCC=C1N(Cc1ccccc1)C(=O)[C@H](CC(=O)NCc1cccc(C(F)(F)F)c1)C2", "Potency": "inconclusive [cytotoxic, single point]"}
{"smiles": "O=[N+]([O-])c1cccnc1S(=O)(=O)c1ccccc1", "Potency": "active: 18.4 µM"}
{"smiles": "COc1ccc(CCNC(=O)c2nnn(CC(=O)Nc3ccc(C)cc3C)c2N)cc1OC", "Potency": "inconclusive [cytotoxic, single point]"}
{"smiles": "CCN1/C(=C/c2ccc3ccccc3[n+]2CC)C=Cc2ccccc21", "Potency": "active: 8.2 µM"}
{"smiles": "Clc1cccc(CNc2ccn3nc(-c4ccc(OCCN5CCOCC5)cc4)cc3n2)c1", "Potency": "inconclusive [cytotoxic, single point]"}
{"smiles": "NCCCN(Cc1ccc(Cl)c(Cl)c1)c1ccccn1", "Potency": "active: 11.2 µM"}
{"smiles": "Cc1ccc(C)c(OCC(O)CN2C(C)CCCC2C)c1", "note": "(stereo not drawn)", "Potency": "inconclusive [cytotoxic, single point]"}
{"smiles": "Cc1cc(C)c(S(=O)(=O)Nc2ccncc2)cc1C", "Potency": "inactive"}
{"smiles": "O=[N+]([O-])c1ccc(CSc2nnc(SCc3ccc(Cl)cc3)s2)cc1", "Potency": "inconclusive [cytotoxic, single point]"}
{"smiles": "COc1ccc(/C=N/NC(=O)c2[nH]c3ccc(Br)cc3c2-c2ccccc2)c(C(=O)O)c1OC", "Potency": "active: 23.1 µM"}
{"smiles": "CCCCCCCCCC[N+](C)(C)CC/C=C1/c2ccccc2Sc2ccc(Cl)cc21", "Potency": "inconclusive [cytotoxic, single point]"}
{"smiles": "Cc1[nH]nc2c1C(c1ccc(-c3ccccc3C#N)o1)C(C#N)=C(N)O2", "note": "(stereo not drawn)", "Potency": "active: 11.2 µM"}
